# Assay results taken from PubChem BioAssay AID540317 (National Center for Advancing Translational Sciences (NCATS), 2011).
# Where “and” joins values, the source holds several entries; their conditions need not be identical. Equal entries are not always repeated. Among all 390,000 compounds or so, about 2,200 (0.56%) were called active. This list was built around the results that the source calls inconclusive (neither active nor inactive); the mix of calls is not that of the screen. Calls follow the shape of the dose curve; as a rule, active = well fitted inhibition curve with a large enough effect; inconclusive = small, poorly fitted or top-dose-only effect; inactive = no such curve, though single readings can be large or run the other way. Potencies of inconclusive entries are doubtful fits and often do not repeat.
# Target: Chromobox protein homolog 1 (Homo sapiens) (UniProt P83916)
# Sequence of UniProt P83916 (P83916 whole entry, looked up): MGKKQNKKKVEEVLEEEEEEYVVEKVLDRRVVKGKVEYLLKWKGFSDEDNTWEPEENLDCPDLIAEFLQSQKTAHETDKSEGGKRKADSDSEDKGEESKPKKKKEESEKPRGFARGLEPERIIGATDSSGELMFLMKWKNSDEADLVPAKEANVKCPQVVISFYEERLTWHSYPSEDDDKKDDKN
# Test: HTS for Inhibitors of HP1-beta Chromodomain Interactions with Methylated Histone Tails; also: nearly all actives have a fitted effect of over 70% in size
# Details: AlphaScreen HP1-beta / biotin-H3K9me3 peptide binding; series mostly up to 114 µM; activity change, negative = inhibition: at the top concentration
# Summary of the method: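 HP1-beta protein (50 nM final) preincubated 30 min at room temperature with biotinylated H3(1-18)K9me3 peptide (50 nM) in PBS pH 7.4, 0.01% Tween-20, then compound added for 30 min. AlphaScreen streptavidin donor/nickel chelate acceptor beads (10 ug/mL final), 30 min dark, luminescence read.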
# Potency is read from the fitted curve at half-maximal effect; tags tell the direction and shape of the fitted curve.
Structure (SMILES),Potency,"activity change, negative = inhibition"
COCCNCC(=O)Nc1ccc(OC(F)(F)F)cc1,"inconclusive: 39.8 µM [inhibitor, partial curve]",–
Cc1cc(C([O-])=C(C(=S)Nc2ccccc2)[n+]2ccccc2)c(C)n1-c1ccccc1,"inconclusive: 25.1 µM [inhibitor, partial curve, poor fit]",–
N#CC1(NC(=O)COc2ccccc2[N+](=O)[O-])CCCCC1,"inconclusive: 79.4 µM [inhibitor, single point]",–
COc1cccc(C(c2sc3nc(-c4ccco4)nn3c2O)N2CCN(C)CC2)c1 (stereo unspecified),–,inactive: 39.2%
COc1ccc(C(C(=O)NC2CCCCC2)N(C(=O)c2ccco2)c2ccccc2C(C)=O)cc1OC (stereo unspecified),–,inactive: 17.5%
CCCCN=C1C([N+](=O)[O-])=CC=C2C1=NC1(CCCCC1)N2O,"inconclusive: 10 µM [inhibitor, full curve]",–
COc1ccc(NS(=O)(=O)c2ccc3[nH]c4c(c3c2)CCCCC4)cc1,"inconclusive: 39.8 µM [inhibitor, partial curve, poor fit]",–
Cc1ccc(NC(=O)Nc2c(C)n(C)n(-c3ccccc3)c2=O)cc1C,"inconclusive: 5.01 µM [inhibitor, full curve]",–
CC1(C)Cc2nc3sc4c(=O)n(CC(=O)NCc5ccccc5)cnc4c3cc2CO1,–,inactive: 25.3%
COc1ccccc1/C=C/CN1CCSCC1,"inconclusive: 56.2 µM [inhibitor, partial curve, poor fit]",–
O=C(Nc1ccccc1)N(Cc1cccc(Cl)c1)c1ccccn1,–,inactive: 105%
O=C(O)c1ccc(Cl)cc1Nc1nc2cc(Cl)ccc2o1,–,inactive: -3.12%
CC(C)(C)n1nnnc1C(c1cccc(C#N)c1)N1CCCCCC1 (stereo unspecified),–,inactive: 47.4%
Cn1c(SCC(=O)NC(c2ccccc2)c2ccccc2)nnc1-c1cccs1,–,inactive: -11.2%
C=C(C)C(=O)Nc1cccc(C2=NOC3(C2)C[C@@H](C(N)=O)N(C(=O)/C=C/C=C/C)C3)c1 (stereo partly specified),"inconclusive: 3.16 µM [inhibitor, full curve]",–
COc1cccc(N2CCN(S(=O)(=O)c3cc4c(cc3C)N(C)CCO4)CC2)c1,"inconclusive: 20 µM [inhibitor, full curve]",–
CCOc1ccccc1N1CCN(S(=O)(=O)c2ccc(C3CCCCC3)cc2)CC1,–,inactive: 30.2%
COc1ccc(N2CCN(C(=O)c3cc4c(-c5cccc(OC)c5)nn(C)c4s3)CC2)cc1,"inconclusive: 31.6 µM [inhibitor, single point]",–
Oc1ccc(NCc2ccc(OCc3ccccc3)cc2)cc1,"inconclusive: 79.4 µM [inhibitor, partial curve] and inconclusive: 44.7 µM [inhibitor, partial curve]",–
O=C(Cc1cnn(-c2ccccc2)c1)c1ccc(O)c(O)c1O,"inconclusive: 63.1 µM [inhibitor, single point]",–
Cc1c(C(=O)N2CCOCC2)c(S(=O)(=O)Nc2cccc(Br)c2)c(C)n1C,"inconclusive: 35.5 µM [inhibitor, single point]",–
COc1ccc(NS(=O)(=O)c2ccc(C)c(NC(=O)CN3C(=O)NC4(CCCC4)C3=O)c2)cc1,"inconclusive: 50.1 µM [inhibitor, partial curve]",–

Structure (SMILES),Potency,"activity change, negative = inhibition"
CCN(CC)c1ccc(NC(=O)COC(=O)Cc2ccsc2)cc1,"inconclusive: 56.2 µM [inhibitor, partial curve, poor fit]",–
CCC(=O)N1CCc2cc(Br)cc(S(=O)(=O)CCC(=O)Nc3cccc(C)c3C)c21,–,inactive: 23.9%
CCOCCCNC(=O)c1ccc(-n2c(-c3ccccc3)cc3c2CCCCC3)cc1,–,inactive: 22.5%
COc1ccc(CCN2C(=O)/C(=C\c3ccco3)SC2=S)cc1OC,–,inactive: -21.9%
O=C(c1cccnc1)N1CCN(Cc2ccc3ccccc3c2)CC1,"inconclusive: 17.8 µM [inhibitor, full curve, poor fit]",–
CCN1CCN(CC(=O)Nc2nc3ccccc3s2)CC1,"inconclusive: 17.8 µM [inhibitor, full curve, poor fit]",–
Cc1ccc(SC2=C(N(C)C)C(=O)c3ccccc3C2=O)cc1,"inconclusive: 4.47 µM [inhibitor, full curve, poor fit]",–
COc1ccc(OC)c(S(=O)(=O)n2cccn2)c1,"inconclusive: 35.5 µM [inhibitor, single point]",–
CCOC(=O)C1CCC(CN(Cc2ccc(OC)cc2)S(=O)(=O)c2ccc(F)c(C(=O)Nc3c(C)cccc3C)c2)CC1 (stereo unspecified),–,inactive: 25.8%
Cc1ccc(S(=O)(=O)N2CCN(c3nc(-c4cccs4)nc4c3ncn4COC(=O)C(C)(C)C)CC2)cc1,–,inactive: 30%
C/C(=N\Nc1nncc2ccccc12)c1ccc(O)cc1,–,inactive: -4.43%
O=C1/C(=C\c2cc(Cl)c(O)c(Cl)c2)SC(=S)N1Cc1ccccc1,"inconclusive: 56.2 µM [inhibitor, partial curve, poor fit]",–
COc1ccc(N2CCN(c3ccc4nnc(CCC(=O)Nc5ccc(C)cc5)n4n3)CC2)cc1,"inconclusive: 39.8 µM [inhibitor, partial curve]",–
Cc1ccccc1OCc1nnc(SCC(=O)NC2CCCCC2)o1,"inconclusive: 79.4 µM [inhibitor, partial curve, poor fit]",–
Cc1cc(C)c(S(=O)(=O)N2CCCOC2CNC(=O)C(=O)NCCc2c[nH]c3ccccc23)c(C)c1 (stereo unspecified),"inconclusive: 28.2 µM [inhibitor, partial curve, poor fit]",–
CN1CCN(/N=C/c2c3ccccc3c(Cl)c3ccccc23)CC1,"inconclusive: 50.1 µM [inhibitor, partial curve, poor fit]",–
C(=N\N(c1ccccc1)c1ccccc1)/c1ccc(N2CCOCC2)s1,"inconclusive: 39.8 µM [inhibitor, single point]",–
COc1ccc(N2CCN(C(=O)CN(c3ccccc3)S(=O)(=O)c3ccc(OC)cc3)CC2)cc1,"inconclusive: 17.8 µM [inhibitor, partial curve, poor fit]",–
O=C(NCc1ccc(F)cc1)c1cc(-c2ccncc2)nc2ccccc12,"inconclusive: 35.5 µM [inhibitor, single point]",–
O=C(O)COc1ccccc1/C=N/NC(=O)CSc1nc2ccccc2s1,–,inactive: 31.1%
COc1cc(CNS(=O)(=O)c2ccc3c(c2)CC(C)N3C(C)=O)cc(OC)c1OC (stereo unspecified),–,inactive: 53.9%
COc1ccc(-c2csc(NC(=O)c3cccc(S(=O)(=O)N4CCN(C)CC4)c3)n2)cc1,"inconclusive: 17.8 µM [inhibitor, partial curve, poor fit]",–

Structure (SMILES),Potency,"activity change, negative = inhibition"
Cc1[nH]n(-c2ccccc2)c(=O)c1N=Nc1ccccc1C(=O)N1CCOCC1,"inconclusive: 70.8 µM [inhibitor, partial curve]",–
Cc1ccc2nsnc2c1NC(=O)c1ccc(-c2cc(Cl)ccc2Cl)o1,–,inactive: 43.5%
COc1cc(C2SCCS2)cc(Br)c1Oc1ncccc1[N+](=O)[O-],"inconclusive: 50.1 µM [inhibitor, partial curve]",–
Cc1c(NS(=O)(=O)c2cccc(C(=O)NCc3ccc(Cl)cc3)c2)c(=O)n(-c2ccccc2)n1C,–,inactive: -11.2%
N#Cc1ccc(OCC(=O)Nc2ccncc2)cc1,–,inactive: 35%
COc1ccc(C)cc1NC(=O)C(NCC(O)c1ccccc1)c1ccccc1 (stereo unspecified),"inconclusive: 15.8 µM [inhibitor, partial curve]",–
CNC(=S)Nc1ccc(C)c(NC(=S)NC)c1,"inconclusive: 22.4 µM [inhibitor, single point]",–
Cn1c(=O)c2c(nc(CN3CCN(C(=O)c4ccco4)CC3)n2Cc2ccc(Cl)cc2)n(C)c1=O,–,inactive: 27.3%
Cc1ccc(NC(=O)CN2C(=O)S/C(=C\c3cccn3-c3cccc(C(=O)O)c3)C2=O)cc1C,"inconclusive: 50.1 µM [inhibitor, partial curve, poor fit]",–
COCCCn1[nH]c2c3c(ccc2c1=O)C(=O)c1ccccc1C3=O,–,inactive: -18.2%
CC1=NN(c2ccccc2)C(=O)/C1=C/c1c(O)n(-c2ccc(F)c(Cl)c2)[nH]c1=O,"inconclusive: 39.8 µM [inhibitor, partial curve]",–
C=CCOc1cccc(C2/C(=C(/O)c3ccc(Cl)cc3)C(=O)C(=O)N2CCN2CCOCC2)c1 (stereo unspecified),"inconclusive: 89.1 µM [inhibitor, partial curve, poor fit]",–
O=[N+]([O-])c1cc(F)cc(F)c1Nc1cc(F)cc(F)c1,"inconclusive: 22.4 µM [inhibitor, single point]",–
Fc1ccc(-n2c(-c3cc(C4CC4)[nH]n3)n[nH]c2=S)cc1Cl,–,inactive: 10.5%
Cc1csc(NC(=O)CCCNC(=O)c2ccc(Cl)cc2)n1,–,inactive: 25.1%
CC(=O)c1cccc(N(CC(=O)Nc2cc(C)cc(C)c2)S(C)(=O)=O)c1,"inconclusive: 89.1 µM [inhibitor, single point]",–
CC1CCCC(C)N1C(=O)CSc1nnc(NC(=O)Cc2cccs2)s1 (stereo unspecified),"inconclusive: 31.6 µM [inhibitor, partial curve]",–
O=C(CSc1ncnc2scc(-c3ccccc3)c12)N1CCN(Cc2ccc3c(c2)OCO3)CC1,"inconclusive: 44.7 µM [inhibitor, partial curve]",–
CCn1c(O)c(C=NC2CCCC(C)C2C)sc1=S (stereo unspecified),"inconclusive: 17.8 µM [inhibitor, partial curve, poor fit]",–
O=S(=O)(Nc1ccc(-n2cccc2)cc1)c1ccc(F)cc1,"inconclusive: 50.1 µM [inhibitor, partial curve]",–
CCCN1C(=O)/C(=C/c2ccc(C)o2)SC1=Nc1ccc(OC)cc1,"inconclusive: 14.1 µM [inhibitor, full curve, poor fit]",–
O=C(COc1cc2oc(=O)c3c(c2cc1Cl)CCC3)NCc1ccccn1,–,inactive: 20.7%
